# The other results are listed elsewhere or left out.
# B1: Epa3 (Candida glabrata), Q6VBI8_CANGB (protein)
# chain: MGSSHHHHHHSSGLVPRGSHMNDLGFSLFEKRELSSQNPFGYPIGCSPQDVAIIPGLTMELYSYPIVSGTPPNCYDASYVDPEYPRTGYLKRKMVGKSTGVTGNLNYKYSVEKACMVKYGNLPAGYNYNEPLTVSNFTMILYGYFKAQTTGLHTFFVNADDLLYINFGAGNAFDCCKREDSKTKLGEYVAYDIWHVDSSKNKVSLFLEKDLYYPIRMFFNNIGKDSSLDLSFSVNGATDQISDFSGYLYSVPDQPDTCPAHIGYDTTCR
# Tests used:
# Assay in all cases: glycan array binding signal (z-score within array); higher = stronger binding
# Conditions in all cases: glycan notation: IUPAC condensed, linker removed
# [1] = biological target: Fuc(a1-2)Gal
# Outline: (§1)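 Columns mapping to the same glycan were averaged after glycan names were converted to IUPAC-condensed notation. The data come from 3228 arrays in the Consortium for Functional Glycomics database, limited to those with an available protein sequence. Binding is reported as a within-array Z-score averaged across arrays of one protein sequence and across linkers.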
# [2] = biological target: Fuc(a1-2)Gal(b1-3)GalNAc
# Outline: as §1
# [3] = biological target: Fuc(a1-2)Gal(b1-3)GalNAc(a1-3)[Fuc(a1-2)]Gal(b1-4)Glc
# Outline: as §1
# [4] = biological target: Fuc(a1-2)Gal(b1-3)GalNAc(a1-3)[Fuc(a1-2)]Gal(b1-4)GlcNAc
# Outline: as §1
# [5] = biological target: Fuc(a1-2)Gal(b1-3)GalNAc(b1-3)Gal
# Outline: as §1
# [6] = biological target: Fuc(a1-2)Gal(b1-3)GalNAc(b1-3)Gal(a1-4)Gal(b1-4)Glc
# Outline: as §1
# [7] = biological target: Fuc(a1-2)Gal(b1-3)GalNAc(b1-4)[Neu5Ac(a2-3)]Gal(b1-4)Glc
# Outline: as §1
# [8] = biological target: Fuc(a1-2)Gal(b1-3)GlcNAc
# Outline: as §1
# [9] = biological target: Fuc(a1-2)Gal(b1-3)GlcNAc(b1-2)Man(a1-3)[Fuc(a1-2)Gal(b1-3)GlcNAc(b1-2)Man(a1-6)]Man(b1-4)GlcNAc(b1-4)GlcNAc
# Outline: as §1
# [10] = biological target: Fuc(a1-2)Gal(b1-3)GlcNAc(b1-2)Man(a1-3)[Fuc(a1-2)Gal(b1-3)GlcNAc(b1-2)Man(a1-6)]Man(b1-4)GlcNAc(b1-4)[Fuc(a1-6)]GlcNAc
# Outline: as §1
# [11] = biological target: Fuc(a1-2)Gal(b1-3)GlcNAc(b1-3)Gal(b1-4)Glc
# Outline: as §1
# [12] = biological target: Fuc(a1-2)Gal(b1-3)GlcNAc(b1-3)GalNAc
# Outline: as §1
# [13] = biological target: Fuc(a1-2)Gal(b1-3)GlcNAc(b1-3)[Fuc(a1-2)Gal(b1-3)GlcNAc(b1-6)]GalNAc
# Outline: as §1
# [14] = biological target: Fuc(a1-2)Gal(b1-3)GlcNAc(b1-3)[Gal(b1-4)GlcNAc(b1-6)]Gal(b1-4)Glc
# Outline: as §1
# [15] = biological target: Fuc(a1-2)Gal(b1-3)GlcNAc(b1-3)[Neu5Ac(a2-6)Gal(b1-4)GlcNAc(b1-6)]Gal(b1-4)Glc
# Outline: as §1
# [16] = biological target: Fuc(a1-2)Gal(b1-3)GlcNAc6S
# Outline: as §1
# [17] = biological target: Fuc(a1-2)Gal(b1-3)[Fuc(a1-4)]GlcNAc
# Outline: as §1
# [18] = biological target: Fuc(a1-2)Gal(b1-3)[Fuc(a1-4)]GlcNAc(b1-2)Man(a1-3)[Fuc(a1-2)Gal(b1-3)[Fuc(a1-4)]GlcNAc(b1-2)Man(a1-3)]Man(b1-4)GlcNAc(b1-4)GlcNAc
# Outline: as §1
# [19] = biological target: Fuc(a1-2)Gal(b1-3)[Fuc(a1-4)]GlcNAc(b1-2)Man(a1-3)[Fuc(a1-2)Gal(b1-3)[Fuc(a1-4)]GlcNAc(b1-2)Man(a1-6)]Man(b1-4)GlcNAc(b1-4)[Fuc(a1-6)]GlcNAc(b1-4)[Fuc(a1-6)]GlcNAc
# Outline: as §1
# [20] = biological target: Fuc(a1-2)Gal(b1-3)[Fuc(a1-4)]GlcNAc(b1-3)[Fuc(a1-3)[Gal(b1-4)]GlcNAc(b1-6)]Gal(b1-4)Glc
# Outline: as §1
# [21] = biological target: Fuc(a1-2)Gal(b1-3)[Fuc(a1-4)]GlcNAc(b1-3)[Gal(b1-4)GlcNAc(b1-6)]Gal(b1-4)Glc
# Outline: as §1
# [22] = biological target: Fuc(a1-2)Gal(b1-4)Fuc(a1-3)]GlcNAc(b1-2)Man(a1-3)[Fuc(a1-2)Gal(b1-4)[Fuc(a1-3)]GlcNAc(b1-2)Man(a1-6)]Man(b1-4)GlcNAc(b1-4)GlcNAc
# Outline: as §1
# [23] = biological target: Fuc(a1-2)Gal(b1-4)Glc
# Outline: as §1
# [24] = biological target: Fuc(a1-2)Gal(b1-4)Glc6S
# Outline: as §1
# [25] = biological target: Fuc(a1-2)Gal(b1-4)GlcNAc
# Outline: as §1
# [26] = biological target: Fuc(a1-2)Gal(b1-4)GlcNAc(b1-2)Man
# Outline: as §1
# [27] = biological target: Fuc(a1-2)Gal(b1-4)GlcNAc(b1-2)Man(a1-3)[Fuc(a1-2)Gal(b1-4)GlcNAc(b1-2)Man(a1-6)]Man(b1-4)GlcNAc(b1-4)GlcNAc
# Outline: as §1
# [28] = biological target: Fuc(a1-2)Gal(b1-4)GlcNAc(b1-2)Man(a1-3)[Fuc(a1-2)Gal(b1-4)GlcNAc(b1-2)Man(a1-6)]Man(b1-4)GlcNAc(b1-4)[Fuc(a1-6)]GlcNAc
# Outline: as §1
# [29] = biological target: Fuc(a1-2)Gal(b1-4)GlcNAc(b1-2)[Fuc(a1-2)Gal(b1-4)GlcNAc(b1-4)]Man(a1-3)[Fuc(a1-2)Gal(b1-4)GlcNAc(b1-2)Man(a1-6)]Man(b1-4)GlcNAc(b1-4)GlcNAc
# Outline: as §1
# [30] = biological target: Fuc(a1-2)Gal(b1-4)GlcNAc(b1-3)Gal(b1-4)GlcNAc
# Outline: as §1
binder,measurement,setting,value
B1,glycan array binding signal (z-score),[1],0.117
same,glycan array binding signal (z-score),[2],-0.197
same,glycan array binding signal (z-score),[3],-0.261
same,glycan array binding signal (z-score),[4],-0.14
same,glycan array binding signal (z-score),[5],0.784
same,glycan array binding signal (z-score),[6],-0.154
same,glycan array binding signal (z-score),[7],0.041
same,glycan array binding signal (z-score),[8],-0.243
same,glycan array binding signal (z-score),[9],-0.227
same,glycan array binding signal (z-score),[10],-0.023
same,glycan array binding signal (z-score),[11],-0.221
same,glycan array binding signal (z-score),[12],-0.264
same,glycan array binding signal (z-score),[13],0.177
same,glycan array binding signal (z-score),[14],-0.113
same,glycan array binding signal (z-score),[15],-0.234
same,glycan array binding signal (z-score),[16],0.035
same,glycan array binding signal (z-score),[17],-0.21
same,glycan array binding signal (z-score),[18],0.103
same,glycan array binding signal (z-score),[19],0.116
same,glycan array binding signal (z-score),[20],-0.328
same,glycan array binding signal (z-score),[21],-0.171
same,glycan array binding signal (z-score),[22],0.257
same,glycan array binding signal (z-score),[23],-0.259
same,glycan array binding signal (z-score),[24],-0.034
same,glycan array binding signal (z-score),[25],-0.3
same,glycan array binding signal (z-score),[26],-0.258
same,glycan array binding signal (z-score),[27],-0.328
same,glycan array binding signal (z-score),[28],-0.216
same,glycan array binding signal (z-score),[29],-0.2
same,glycan array binding signal (z-score),[30],-0.314

# From the supplement of paper PMC8728848
